The full ranking holds about 81,000 sequences; the median of “one-hybrid fitness for binding NBS DNA” is about -0.1, and the highest 2% start at about 0.36. Some of the results follow.
B1: Caulobacter ParB omega fusion; a variant is named by its letters at X, in order, B8GW30 (parent)
chain: MESVVVGEPGMSEGRRGLGRGLSALLGEVDAAPAQAPGEQLGGSREAPIEILQRNPDQPRRTFREEDLEDLSNSIREKGVLQPILVRPSPDTAGEYQIVAGERAWRAAQRAGLKTVPIMVRELDDLAVLEIGIIENVQRADLNVLEEALSYKVLMEKFERTQENIAQTIGKSXSHVANXMRLLXLPDEVQSYLVSGELTAXHARAIAAAADPVALAKQIIEGGLSVRETEALARKAPNLSAGKSKGGRPPRVKDTDTQALESDLSSVLGLDVSIDHRGSTGTLTITYATLEQLDDLCNRLTRGI

Variants of: B1
Assay: one-hybrid fitness for binding NBS DNA (the Noc-binding site; scaled: cognate 1, non-cognate 0); higher = stronger binding
Conditions: with NBS DNA site
Procedure, shortened: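 In E. coli USO, a HIS3 reporter with its site placed 19 bp from the promoter was used to select Caulobacter ParB variants randomised at four specificity codons. Growth lasted 48 hours at 37°C on histidine-free M9 containing 0.1 mM IPTG and 5 mM 3-AT. Fitness was taken as the log change in variant-to-wild-type read ratio from Illumina sequencing of pre- and post-selection plasmids, rescaled between the non-cognate and cognate sites.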
With DESL the “one-hybrid fitness for binding NBS DNA” value was no more than 0.2.
In the case of DEPV, the “one-hybrid fitness for binding NBS DNA” value is reported as no more than 0.2.
For MRKV, the “one-hybrid fitness for binding NBS DNA” value was no more than 0.2.
YSQQ was tested, and the “one-hybrid fitness for binding NBS DNA” value was no more than 0.2.
With GAVI the “one-hybrid fitness for binding NBS DNA” value was no more than 0.2.
With CVPI the “one-hybrid fitness for binding NBS DNA” value was no more than 0.2.
KSLN was tested, and the “one-hybrid fitness for binding NBS DNA” value was no more than 0.2.
In the case of NGKK, the “one-hybrid fitness for binding NBS DNA” value is reported as no more than 0.2.
QFTG was tested, and the “one-hybrid fitness for binding NBS DNA” value was no more than 0.2.
ESIS was tested, and the “one-hybrid fitness for binding NBS DNA” value was no more than 0.2.
In the case of IRNV, the “one-hybrid fitness for binding NBS DNA” value is reported as no more than 0.2.
With QQYN the “one-hybrid fitness for binding NBS DNA” value was no more than 0.2.
In the case of HTAP, the “one-hybrid fitness for binding NBS DNA” value is reported as no more than 0.2.
YHAT was tested, and the “one-hybrid fitness for binding NBS DNA” value was no more than 0.2.
In the case of PQRV, the “one-hybrid fitness for binding NBS DNA” value is reported as no more than 0.2.
In the case of SQPV, the “one-hybrid fitness for binding NBS DNA” value is reported as no more than 0.2.
For RIGC, the “one-hybrid fitness for binding NBS DNA” value was no more than 0.2.
TDLG was tested, and the “one-hybrid fitness for binding NBS DNA” value was no more than 0.2.
With LMYT the “one-hybrid fitness for binding NBS DNA” value was no more than 0.2.
With YHLP the “one-hybrid fitness for binding NBS DNA” value was no more than 0.2.
DTSR was tested, and the “one-hybrid fitness for binding NBS DNA” value was no more than 0.2.
TGAK was tested, and the “one-hybrid fitness for binding NBS DNA” value was no more than 0.2.
In the case of TPSD, the “one-hybrid fitness for binding NBS DNA” value is reported as no more than 0.2.
For VPWV, the “one-hybrid fitness for binding NBS DNA” value was no more than 0.2.
For IPRH, the “one-hybrid fitness for binding NBS DNA” value was no more than 0.2.
With CNRQ the “one-hybrid fitness for binding NBS DNA” value was no more than 0.2.
In the case of DLET, the “one-hybrid fitness for binding NBS DNA” value is reported as no more than 0.2.
RHEW was tested, and the “one-hybrid fitness for binding NBS DNA” value was no more than 0.2.
QNIF was tested, and the “one-hybrid fitness for binding NBS DNA” value was no more than 0.2.
ARAA was tested, and the “one-hybrid fitness for binding NBS DNA” value was no more than 0.2.
SKLN was tested, and the “one-hybrid fitness for binding NBS DNA” value was no more than 0.2.
For FRFG, the “one-hybrid fitness for binding NBS DNA” value was no more than 0.2.
For AWRF, the “one-hybrid fitness for binding NBS DNA” value was no more than 0.2.
In the case of RSET, the “one-hybrid fitness for binding NBS DNA” value is reported as no more than 0.2.
For PNMG, the “one-hybrid fitness for binding NBS DNA” value was no more than 0.2.
KDAT was tested, and the “one-hybrid fitness for binding NBS DNA” value was no more than 0.2.
In the case of HPSH, the “one-hybrid fitness for binding NBS DNA” value is reported as no more than 0.2.
With TWKT the “one-hybrid fitness for binding NBS DNA” value was no more than 0.2.
For DMTT, the “one-hybrid fitness for binding NBS DNA” value was no more than 0.2.
With THDP the “one-hybrid fitness for binding NBS DNA” value was no more than 0.2.
With PLKR the “one-hybrid fitness for binding NBS DNA” value was no more than 0.2.
With HSIM the “one-hybrid fitness for binding NBS DNA” value was no more than 0.2.
DLQC was tested, and the “one-hybrid fitness for binding NBS DNA” value was no more than 0.2.
For GPHV, the “one-hybrid fitness for binding NBS DNA” value was no more than 0.2.
For PTSW, the “one-hybrid fitness for binding NBS DNA” value was no more than 0.2.
For CVKG, the “one-hybrid fitness for binding NBS DNA” value was no more than 0.2.
With DLEC the “one-hybrid fitness for binding NBS DNA” value was no more than 0.2.
With STHI the “one-hybrid fitness for binding NBS DNA” value was no more than 0.2.
VWQG was tested, and the “one-hybrid fitness for binding NBS DNA” value was no more than 0.2.
With YNHC the “one-hybrid fitness for binding NBS DNA” value was no more than 0.2.
SDDI was tested, and the “one-hybrid fitness for binding NBS DNA” value was no more than 0.2.
For VKKS, the “one-hybrid fitness for binding NBS DNA” value was no more than 0.2.
In the case of EILG, the “one-hybrid fitness for binding NBS DNA” value is reported as no more than 0.2.
KSTT was tested, and the “one-hybrid fitness for binding NBS DNA” value was no more than 0.2.
In the case of THMF, the “one-hybrid fitness for binding NBS DNA” value is reported as no more than 0.2.
For PMPD, the “one-hybrid fitness for binding NBS DNA” value was no more than 0.2.
PKCW was tested, and the “one-hybrid fitness for binding NBS DNA” value was no more than 0.2.
For QHYT, the “one-hybrid fitness for binding NBS DNA” value was 0.359.
With TWSS the “one-hybrid fitness for binding NBS DNA” value was no more than 0.2.
With FIHS the “one-hybrid fitness for binding NBS DNA” value was no more than 0.2.
For AYPF, the “one-hybrid fitness for binding NBS DNA” value was no more than 0.2.
For HPDF, the “one-hybrid fitness for binding NBS DNA” value was no more than 0.2.
AREA was tested, and the “one-hybrid fitness for binding NBS DNA” value was no more than 0.2.
For YLKA, the “one-hybrid fitness for binding NBS DNA” value was no more than 0.2.
For FTTF, the “one-hybrid fitness for binding NBS DNA” value was no more than 0.2.
WYLR was tested, and the “one-hybrid fitness for binding NBS DNA” value was no more than 0.2.
For KWET, the “one-hybrid fitness for binding NBS DNA” value was no more than 0.2.
In the case of PIQY, the “one-hybrid fitness for binding NBS DNA” value is reported as no more than 0.2.
For CTHS, the “one-hybrid fitness for binding NBS DNA” value was no more than 0.2.
For NSCK, the “one-hybrid fitness for binding NBS DNA” value was no more than 0.2.
In the case of PQYN, the “one-hybrid fitness for binding NBS DNA” value is reported as no more than 0.2.
With TSMN the “one-hybrid fitness for binding NBS DNA” value was no more than 0.2.
With QGRA the “one-hybrid fitness for binding NBS DNA” value was no more than 0.2.
PLSA was tested, and the “one-hybrid fitness for binding NBS DNA” value was no more than 0.2.
VLCF was tested, and the “one-hybrid fitness for binding NBS DNA” value was no more than 0.2.
With AIYT the “one-hybrid fitness for binding NBS DNA” value was no more than 0.2.
In the case of LDGT, the “one-hybrid fitness for binding NBS DNA” value is reported as no more than 0.2.
In the case of PVAG, the “one-hybrid fitness for binding NBS DNA” value is reported as no more than 0.2.
With DRPV the “one-hybrid fitness for binding NBS DNA” value was no more than 0.2.
For YPAW, the “one-hybrid fitness for binding NBS DNA” value was no more than 0.2.
In the case of PYKP, the “one-hybrid fitness for binding NBS DNA” value is reported as no more than 0.2.
In the case of HLRD, the “one-hybrid fitness for binding NBS DNA” value is reported as no more than 0.2.
RHGE was tested, and the “one-hybrid fitness for binding NBS DNA” value was no more than 0.2.
YHRG was tested, and the “one-hybrid fitness for binding NBS DNA” value was no more than 0.2.
For RWSL, the “one-hybrid fitness for binding NBS DNA” value was no more than 0.2.
With QVDG the “one-hybrid fitness for binding NBS DNA” value was no more than 0.2.
In the case of CTLY, the “one-hybrid fitness for binding NBS DNA” value is reported as no more than 0.2.
For VVTK, the “one-hybrid fitness for binding NBS DNA” value was no more than 0.2.
With FPHT the “one-hybrid fitness for binding NBS DNA” value was no more than 0.2.
With AKFR the “one-hybrid fitness for binding NBS DNA” value was no more than 0.2.
WELG was tested, and the “one-hybrid fitness for binding NBS DNA” value was no more than 0.2.
RCRM was tested, and the “one-hybrid fitness for binding NBS DNA” value was 0.231.
With LCSN the “one-hybrid fitness for binding NBS DNA” value was no more than 0.2.
In the case of NGFS, the “one-hybrid fitness for binding NBS DNA” value is reported as no more than 0.2.
In the case of KVKP, the “one-hybrid fitness for binding NBS DNA” value is reported as no more than 0.2.
In the case of TQKT, the “one-hybrid fitness for binding NBS DNA” value is reported as no more than 0.2.
With VQQV the “one-hybrid fitness for binding NBS DNA” value was no more than 0.2.
In the case of VMAT, the “one-hybrid fitness for binding NBS DNA” value is reported as no more than 0.2.

Reference: a collection of fitness landscapes (doi:10.1016/j.celrep.2020.107928)
